Consider 57 compounds from article PMC4336329 (PLoS ONE, 2015).

Among all 310,000 compounds or so, about 2,200 (0.71%) showed an effect of 50% or more. The effect is printed as a negative number. The list shows a part of the results.

human ether-à-go-go-related gene (hERG) potassium channel, sequence (Q12809 whole entry, looked up): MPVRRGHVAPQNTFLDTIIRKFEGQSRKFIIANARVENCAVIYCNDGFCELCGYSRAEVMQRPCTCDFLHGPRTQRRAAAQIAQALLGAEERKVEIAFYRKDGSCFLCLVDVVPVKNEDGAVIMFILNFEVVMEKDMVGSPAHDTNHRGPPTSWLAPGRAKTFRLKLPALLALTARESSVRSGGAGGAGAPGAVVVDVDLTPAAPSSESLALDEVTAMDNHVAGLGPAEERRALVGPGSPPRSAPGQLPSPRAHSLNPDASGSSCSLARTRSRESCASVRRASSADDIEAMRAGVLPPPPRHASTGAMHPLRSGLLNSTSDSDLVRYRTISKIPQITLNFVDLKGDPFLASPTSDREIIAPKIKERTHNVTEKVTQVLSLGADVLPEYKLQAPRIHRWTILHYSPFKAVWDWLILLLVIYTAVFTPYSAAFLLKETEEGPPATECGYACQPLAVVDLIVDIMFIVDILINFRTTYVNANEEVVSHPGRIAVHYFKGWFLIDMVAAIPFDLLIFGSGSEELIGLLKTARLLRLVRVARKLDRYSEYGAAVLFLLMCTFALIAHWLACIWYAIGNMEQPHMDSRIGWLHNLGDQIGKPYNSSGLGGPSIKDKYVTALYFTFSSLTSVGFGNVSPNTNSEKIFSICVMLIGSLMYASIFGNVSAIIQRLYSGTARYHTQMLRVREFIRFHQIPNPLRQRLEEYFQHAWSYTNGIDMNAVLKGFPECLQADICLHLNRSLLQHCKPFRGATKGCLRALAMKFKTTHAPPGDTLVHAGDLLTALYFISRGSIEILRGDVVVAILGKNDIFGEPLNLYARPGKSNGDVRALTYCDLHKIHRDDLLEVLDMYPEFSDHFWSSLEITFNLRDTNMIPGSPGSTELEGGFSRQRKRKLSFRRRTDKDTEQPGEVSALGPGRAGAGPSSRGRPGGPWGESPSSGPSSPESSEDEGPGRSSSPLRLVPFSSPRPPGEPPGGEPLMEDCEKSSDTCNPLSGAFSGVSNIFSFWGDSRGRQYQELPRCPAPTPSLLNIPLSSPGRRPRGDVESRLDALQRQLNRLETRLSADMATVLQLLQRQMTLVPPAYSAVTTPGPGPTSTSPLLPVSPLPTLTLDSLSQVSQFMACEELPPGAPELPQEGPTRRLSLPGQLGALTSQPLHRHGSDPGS

The experiment addresses human ether-à-go-go-related gene (hERG) potassium channel (human, UniProt Q12809). As to the kind of experiment: primary screen, population patch clamp on CHO cells stably expressing hERG.
Consider `COc1cc2c(cc1O)[C@@H]1Cc3cc(OC)c(OC)cc3C(C2)N1C`, for which the “hERG current change (%, negative = inhibition) at 1uM” value is on record as 7.84%. In the case of `Cc1nc2ccc(C(=O)O)cc2c2c1CC(CN)O2` (stereo not drawn), the “hERG current change (%, negative = inhibition) at 1uM” value is reported as 18%.

As for `COc1cc(C(=O)NC2CCN(CC(=O)Nc3cccc(C)c3C)CC2)cc(OC)c1OC`, the “hERG current change (%, negative = inhibition) at 1uM” value came to 3.41%. Turning to `C(=N\Nc1ccc(-n2ccnc2)nn1)/c1ccccc1`, the “hERG current change (%, negative = inhibition) at 1uM” value is listed as 7.51%. Consider `CCc1cc2c(N=Nc3c(O)[nH]c4ccccc34)ncnc2s1`, for which the “hERG current change (%, negative = inhibition) at 1uM” value came out at 14.1%. As for `Cn1cc([N+](=O)[O-])c(C(=O)N/N=C/c2cc3c(cc2Br)OCO3)n1`, the figure is 8.91%. `Cc1cc(-c2n[nH]c(=S)n2-c2ccccc2)nn1C`: the “hERG current change (%, negative = inhibition) at 1uM” value stood at 11.1%. For `Cc1ccc2c(c1)c(=O)c1c3n2CCN(C(=O)CCl)C3CC1` (stereo not drawn), the “hERG current change (%, negative = inhibition) at 1uM” value came to 7.46%. As for `COC/C=C/C1=CC2=CC(=O)C(C)(OC(=O)c3cnc4ccccc4n3)C(=O)C2=CN1c1cccc(C#N)c1` (stereo not drawn), the figure is 7.85%; as for `COC(=O)C1=C(CN2CCCc3ccccc32)NC(=O)NC1c1ccc(F)cc1` (stereo not drawn), 1.29%.

Turning to `O=C1C=C(c2ccccc2)CC(c2ccc(F)cc2)C1` (stereo not drawn), the “hERG current change (%, negative = inhibition) at 1uM” value is -3.42%.

As for `Cc1nc2c(-c3ccccc3)c(C)[nH]n2c(=O)c1Cc1ccccc1`, the “hERG current change (%, negative = inhibition) at 1uM” value is 4.93%. The result for `CCOc1ccc(NS(=O)(=O)c2cc(C)c(C)cc2C)cc1` reads 1.9%. `CCN1CCN(C(=O)c2ccc(Cl)c(S(=O)(=O)N3CCCCCC3)c2)CC1.Cl`: the “hERG current change (%, negative = inhibition) at 1uM” value is reported as -14%. As for `COc1ccc2c(c1OC)C(=O)OC2Nc1nc2ccccc2s1` (stereo not drawn), the figure is 8.65%; as for `O=C1CCCC(O)=C1C(C#Cc1ccccc1)C1=C(O)CCCC1=O`, 2.05%.

For the compound `O=c1cc(-c2ccccc2)nc(SCc2ccccc2F)[nH]1`, the “hERG current change (%, negative = inhibition) at 1uM” value stood at 9.43%. As for `Cc1ccc(NC(=O)c2cc3ccccc3oc2=O)cc1S(=O)(=O)N(C)C`, the figure is 17.8%; as for `COCCn1c(SCC(=O)Nc2c(C)n(C)n(-c3ccccc3)c2=O)nnc1-c1ccncc1`, 15.3%. Regarding `Cc1ccc(CN2CCNC(=O)C2CC(=O)O)cc1` (stereo not drawn), the “hERG current change (%, negative = inhibition) at 1uM” value was found to be 9.25%.

On to `CCCCOc1cc(C(=O)OCCN(CC)CC)ccc1N.Cl`, for which the “hERG current change (%, negative = inhibition) at 1uM” value is -23.2%. As for `CC(=O)Nc1nc(C)c(Oc2cccc(C(F)(F)F)c2)c(=O)[nH]1`, the figure is 12.1%; as for `CCOC(=O)C1(CCc2ccccc2)CCN(Cc2ccc(OC)cc2)CC1`, -86.9%.

As to `O=C(Cn1cc(C(F)(F)F)ccc1=O)Nc1ccc(N2CCOCC2)cc1`, the “hERG current change (%, negative = inhibition) at 1uM” value was -0.732%. The result for `NC(=S)Nc1cccc2cn[nH]c12` reads -1.62%; that for `COc1ccc(CCC(=O)NCCc2ccc(OC)c(OC)c2)cc1`, 19%; that for `CC(OC(=O)c1cccnc1)C(=O)Nc1ccc2c(c1)OCO2` (stereo not drawn), 12.2%. Consider `Cc1cc(C)cc(NC(=O)C(OC(=O)c2cccs2)c2ccccc2)c1` (stereo not drawn), for which the “hERG current change (%, negative = inhibition) at 1uM” value came to 16.7%. The result for `COC(=O)C(CCCN1C(=O)c2ccccc2C1=O)(NC(C)=O)c1nnn(C)n1` (stereo not drawn) reads 8.91%. As for `CCN(CC)C(=O)C1CCCN(Cc2cccc(F)c2)C1` (stereo not drawn), the figure is 13.3%; as for `CCC(C)(C)n1nnnc1C(c1cc2cc3c(cc2[nH]c1=O)OCO3)N1CCN(C)CC1` (stereo not drawn), 2.02%; as for `CC1CCN(CC(=O)NC(=O)NCc2ccccc2)CC1`, 13.4%. As to `CC12CCC(C(=O)Nc3ccncc3)(CC1O)C2(C)C` (stereo not drawn), the “hERG current change (%, negative = inhibition) at 1uM” value was found to be 9.1%. As for `CN(C)c1ccc(C(C#N)c2ccccc2)nn1` (stereo not drawn), the figure is 17.6%. As for `COc1ccc(OC)c(CNC(=O)C2CCN(S(=O)(=O)N3CCC(C)CC3)CC2)c1`, the figure is -7.91%; as for `COc1cc2[nH]c3c(=O)n(N)c(=O)[nH]c3c2cc1OC`, 12.5%; as for `O=C1OCCN/C1=C\C(=O)c1ccccc1`, 3.81%. The result for `Nc1nc(CSc2ncn[nH]2)nc(Nc2ccc(F)cc2)n1` reads 7.31%; that for `CCOC(=O)c1cc2c(ccn2C)n1CC(=O)N1CCC(C)CC1`, 10.1%. For `N#Cc1cc(-c2ccccc2)nn1-c1ccccc1`, the “hERG current change (%, negative = inhibition) at 1uM” value came to 14.1%. For the compound `CNc1c(NS(=O)(=O)c2cc(Cl)ccc2OC)c(=O)oc2ccccc12`, the “hERG current change (%, negative = inhibition) at 1uM” value is listed as 7.13%. Regarding `COc1ccc(Cc2nc(-c3cccs3)no2)cc1OC`, the “hERG current change (%, negative = inhibition) at 1uM” value was 14.9%. Consider `O=C(Nc1cc(Cl)cc(Cl)c1)N1CCN(C(=O)C2CCCO2)CC1` (stereo not drawn), for which the “hERG current change (%, negative = inhibition) at 1uM” value is -0.208%. As for `CS(=O)(=O)c1ccc(C(=O)OCC(=O)N(CCc2ccccc2)Cc2ccccc2)cc1`, the figure is -1.59%.

`CSc1cccc(NC(=O)C2CCN(S(=O)(=O)c3cnc[nH]3)CC2)c1`: the “hERG current change (%, negative = inhibition) at 1uM” value worked out at 10.1%. The result for `Cc1c(-n2c(SCC(=O)O)nnc2-c2ccccc2Cl)c(=O)n(-c2ccccc2)n1C` reads 15.4%; that for `COc1ccc(CN2CCN(Cc3cccc(OC)c3)C(CCO)C2)cc1` (stereo not drawn), -11.7%. As for `O=C(NCc1ccncc1)c1cccc(S(=O)(=O)N2CCc3ccccc32)c1`, the figure is -3.39%. For `CC(=O)c1c(C)[nH]c(C(=O)Nc2nc(-c3ccc(-c4ccccc4)cc3)cs2)c1C`, the “hERG current change (%, negative = inhibition) at 1uM” value is 6.71%. For `CCCCNC(=O)COC(=O)c1cc2c(C)nn(-c3ccccc3)c2s1`, the “hERG current change (%, negative = inhibition) at 1uM” value stood at 9.21%.

For the compound `CCOc1ccc(NC(=O)CN2CCc3ccccc3C2)cc1`, the “hERG current change (%, negative = inhibition) at 1uM” value turned out to be 11.6%.

`CCCN(CC1CC1)C(=O)Nc1ccccc1C`: the “hERG current change (%, negative = inhibition) at 1uM” value was 11%. The result for `NC(=O)c1nsc(C(=O)N(CC(=O)NC2CCCCC2)Cc2ccc(F)cc2)c1N` reads 16%; that for `CCc1ccc(S(=O)(=O)Nc2nnc(N)s2)cc1`, 10.6%; that for `Cc1n[nH]c(C)c1N=Nc1ccc(Br)cc1`, 19.8%. For the compound `CC(C)(C)NC(=O)Cn1nnc(-c2ccccc2NC(=O)c2cnccn2)n1`, the “hERG current change (%, negative = inhibition) at 1uM” value is given as -7.54%. The result for `C#CCOCCOCCOCCNc1nc(N2CCN(C(=O)C([C@@H](C)CC)n3cc(C(N)COC(=O)C(F)(F)F)nn3)CC2)nc(N2CCN(C(=O)[C@H](CCCCN)n3cc(C(N)[C@H](C)CC)nn3)CC2)n1.Cl` (stereo partly drawn) reads 10.5%.
